Assay results taken from PubChem BioAssay AID488969 (Vanderbilt High Throughput Screening Facility, 2010).
In all, about 110,000 compounds were measured (“z-score”: median about -0.1, highest 2% from about 2 on). This is one part of the list.

Target: Metabotropic glutamate receptor 8 (Rattus norvegicus) (UniProt P70579)
Experiment: mGluR8 Gi/Go-coupled signaling modulation – cell-based, rat, thallium flux, HTS, primary screen (AID 488969)
Details: HEK293 rat mGluR8, GIRK (G protein-gated inwardly rectifying potassium channel) thallium flux, FluoZin2; at 10 µM; stronger effect = higher value; submaximal glutamate (EC20) added with thallium

Sequence of UniProt P70579 (P70579 whole entry, looked up): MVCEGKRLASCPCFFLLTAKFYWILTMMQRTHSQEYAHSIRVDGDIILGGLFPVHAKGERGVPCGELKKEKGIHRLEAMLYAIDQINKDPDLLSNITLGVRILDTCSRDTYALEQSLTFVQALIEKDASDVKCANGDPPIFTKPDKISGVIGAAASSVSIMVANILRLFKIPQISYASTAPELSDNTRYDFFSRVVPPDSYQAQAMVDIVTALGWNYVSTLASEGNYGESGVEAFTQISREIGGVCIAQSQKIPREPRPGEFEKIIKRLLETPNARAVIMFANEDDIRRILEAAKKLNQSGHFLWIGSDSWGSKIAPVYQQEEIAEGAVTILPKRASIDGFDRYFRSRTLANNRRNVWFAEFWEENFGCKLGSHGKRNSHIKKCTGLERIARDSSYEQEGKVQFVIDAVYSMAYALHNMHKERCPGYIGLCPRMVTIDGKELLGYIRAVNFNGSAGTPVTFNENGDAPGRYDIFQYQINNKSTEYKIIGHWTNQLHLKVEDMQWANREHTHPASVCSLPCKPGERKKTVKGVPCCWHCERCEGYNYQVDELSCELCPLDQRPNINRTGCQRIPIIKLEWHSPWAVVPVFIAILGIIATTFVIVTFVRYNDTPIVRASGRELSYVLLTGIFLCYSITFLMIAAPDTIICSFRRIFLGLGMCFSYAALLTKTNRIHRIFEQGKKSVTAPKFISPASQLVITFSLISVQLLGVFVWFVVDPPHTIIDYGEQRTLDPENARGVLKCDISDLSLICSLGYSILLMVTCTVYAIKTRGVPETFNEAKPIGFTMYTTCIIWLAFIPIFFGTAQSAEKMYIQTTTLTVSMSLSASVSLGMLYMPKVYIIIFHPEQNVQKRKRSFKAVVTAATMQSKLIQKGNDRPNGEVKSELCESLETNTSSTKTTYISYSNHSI

Row | Structure (SMILES) | z-score
1 | FC(F)(F)c1cccc(N2CCN(CC3CC=CCC3)CC2)c1 (stereo not given) | 0.0449
2 | C=CCOc1ccc2nc(NC(=O)OC)[nH]c2c1 | -0.0622
3 | COc1ccc2[nH]c(=O)c(CNc3cccc(C)c3)cc2c1 | -0.263
4 | O=C(Nc1ccc(F)cc1)C1CC(=O)n2c(nc3ccccc32)N1 (stereo not given) | -0.119
5 | Cn1c(-c2ccccc2)c(CCO)c2ccccc21 | -0.194
6 | O=C(c1ccccc1)N1CCN(c2ccccc2F)CC1 | 0.276
7 | COc1nccnc1NS(=O)(=O)c1ccc(N=Cc2c(C)[nH]n(-c3ccccc3)c2=O)cc1 | -0.188
8 | COc1ccc(C(=O)N(c2ccc(OC)cc2)S(=O)(=O)c2cccs2)cc1 | 0.08
9 | COc1cc(OC)cc(-c2ncc3ccccn23)c1 | -0.226
10 | N#Cc1c(N)n(CCNC(=O)c2ccc(Cl)cc2)c2nc3ccccc3nc12 | -0.116
11 | O=C(CCC(=O)OCC(=O)c1ccc(Cl)cc1Cl)Nc1cccc2cccnc12 | 0.0344
12 | C=CCN(CC=C)C(=S)Nc1ccccc1 | -0.0866
13 | COC(=O)CSC1=C(C#N)C(c2ccc(Cl)cc2)C(C(=O)OC)C(=O)N1 (stereo not given) | -0.203
14 | CCOC(=O)c1cnc2cc(-c3ccc(Cl)cc3)nn2c1N | -0.0675
15 | Cn1c(CNS(=O)(=O)c2ccc(Br)cc2)n[nH]c1=S | -0.0999
16 | CCOC(=O)Cn1c(N)c(C(=O)OC)sc1=S | 0.268
17 | CCOC(=O)c1c(N2C(=O)C3C4C=CC(C4)C3C2=O)sc2c1CCC(C)C2 (stereo not given) | -0.299
18 | CC(=O)Oc1ccc(C(=O)Nc2cc(NC(=O)c3ccc(OC(C)=O)cc3)cc(C(=O)NC(C)(C)C)c2)cc1 | 0.0825
19 | CCn1c(SCC(=O)NNC(=O)c2ccc(C)cc2)nnc1-c1ccncc1 | -0.224
20 | Cc1[nH]c(=O)[nH]c(=O)c1NS(=O)(=O)c1ccccc1 | -0.278
21 | CCS(=O)(=O)Nc1ccc2c(c1)N(C(C)=O)c1ccccc1CC2 | -0.432
22 | Cc1ccc2sc(-c3ccc(NC(=O)CCN4C(=O)c5ccccc5C4=O)cc3)nc2c1 | -0.0748

Row | Structure (SMILES) | z-score
23 | CCOC(=O)c1ccc(N2CSC3=C(C#N)C(c4cccs4)CC(=O)N3C2)cc1 (stereo not given) | -0.177
24 | Cc1ccc(NC(=O)COC(=O)Cn2c(C)csc2=O)cc1 | -1.08
25 | COP(C)(=O)c1c(C)nn(-c2ccccc2)c1C (stereo not given) | 0.0101
26 | O=C(NCC1CCCO1)C1CCN(S(=O)(=O)c2cccc3cccnc23)CC1 (stereo not given) | -0.104
27 | Cc1ccc(C(c2nnnn2C2CCCCC2)N2CCN3CCCC3C2)cc1 (stereo not given) | -0.813
28 | Oc1ccc(CN2CCCc3ccccc32)c2cccnc12 | -0.948
29 | CN(CCO)Cc1csc2ccc(Br)cc12 | -0.103
30 | O=C(COc1ccccc1)N/N=C/c1ccc([N+](=O)[O-])o1 | 0.0711
31 | O=C(CNC1CCCCCC1)Nc1ccc(S(=O)(=O)NC2CC2)cc1 | -0.309
32 | O=C(NCc1ccco1)NCC(F)(F)F | 0.155
33 | COC(=O)C1=C(CSc2nc3ccccc3o2)NC(=O)NC1c1cc(C)ccc1C (stereo not given) | 0.178
34 | CCOc1ccc(-n2c(Cc3cc(=O)[nH]c(=O)[nH]3)nnc2SC(C)C)cc1 | -0.225
35 | C=CCNCCCCOc1ccc(C)cc1[N+](=O)[O-] | -1.05
36 | O=C(/C=C/Sc1ccccc1)c1ccccc1 | 0.728
37 | COc1cc2c(cc1NC(=O)CN(C)Cc1cccc(OC)c1OC)oc1ccccc12 | -0.32
38 | CCN(CC)c1ccc(NC(=O)COc2ccccc2C#N)cc1S(=O)(=O)Nc1ccc(OC)cc1 | -0.103
39 | Nc1cc(=O)[nH]c(=O)n1Cc1ccco1 | 0.299
40 | CN(Cc1ccco1)C(=O)C1CCC(=O)N1Cc1ccc(F)cc1 (stereo not given) | 0.0462
41 | Cc1cccc(NC(=O)/C=C/c2ccc3c(c2)OCO3)n1 | -0.563
42 | Cc1cccc(NC(=S)NC2CCN(Cc3ccccc3)CC2)c1C | 0.394
43 | CCOC(=O)c1c(NC(=O)Cn2nnc(-c3ccc(Cl)cc3)n2)sc(C)c1C | 0.235
44 | CC(C)OC(=O)CSc1nnc(CNc2ccc(Cl)cc2)n1Cc1ccccc1 | -0.0845

Row | Structure (SMILES) | z-score
45 | CCCCCCc1cc2cc(C(=O)Nc3ccccc3OC)c(=O)oc2cc1O | -0.286
46 | Cc1ccc(-c2noc(CN3C(C)CCCC3C)n2)cc1 (stereo not given) | -0.323
47 | O=C(O)CCc1nc(-c2ccccc2)no1 | 0.336
48 | N=c1ccn(Cc2ccc(Cl)cc2Cl)cc1 | -0.0779
49 | Cc1cnc(C(=O)OCC(=O)Nc2oc(-c3ccccc3)c(-c3ccccc3)c2C#N)cn1 | 1.12
50 | Cc1c(N2C(=O)c3cccc4cccc(c34)C2=O)c(=O)n(-c2ccccc2)n1C | 0.0332
51 | COc1ccccc1C(=O)Nc1cc2c(ccc3ccccc32)oc1=O | 0.145
52 | Cc1cc(C)nc(NS(=O)(=O)c2ccc(NS(=O)(=O)c3ccccc3)cc2)n1 | -0.459
53 | CCOc1ccc(N2C(=O)CC(NCc3ccc(F)cc3)C2=O)cc1 (stereo not given) | -0.252
54 | CC1(C)CC(NCc2ccc3c(c2)OCO3)CCO1 (stereo not given) | -0.0457
55 | CCOc1ccc(-n2c(Cc3cc(=O)[nH]c(=O)[nH]3)nnc2SCC)cc1 | -0.0558
56 | COc1ccc(C)cc1S(=O)(=O)N1CCN(S(=O)(=O)c2cc(C)ccc2OC)CC1 | -0.0891
57 | COc1ccc(C2(CNC(=O)C(c3ccccc3)c3ccccc3)CCOCC2)cc1OC | 0.0252
58 | C=CCC1(O)C(=O)N2C(=C1C(=O)N1CCOCC1)c1ccccc1CC2(C)C (stereo not given) | -0.313
59 | CCc1nc2c(cnn2-c2ccc(F)cc2)c(=O)n1-c1ccc(N2CCC(C)CC2)cc1 | -0.3
60 | COc1ccc(-c2[nH]nc3c2C(c2ccc(OC(=O)N4CCOCC4)cc2)C(C#N)=C(N)O3)cc1 (stereo not given) | -0.365
61 | CCN(CC)CCOc1nnc(-c2ccc(C)cc2)c2ccccc12 | 1.19
62 | COC(=O)c1[nH]c2c(c1C)C(=O)CC(c1ccc(C)cc1)C2 (stereo not given) | -0.49
63 | COc1cccc(OCCNC(=O)c2ccccc2Sc2ccccc2C#N)c1 | -0.266
64 | COc1ccc(N(CC(=O)NCc2cccs2)S(=O)(=O)c2c(C)n[nH]c2C)cc1 | -0.505
65 | CC1=CN2C(=N)/C(=C/c3ccc([N+](=O)[O-])o3)C(=O)N=C2S1 | -0.394
66 | COC(=O)c1cccc(NC(=O)CSc2nc3cccnc3n2C)c1 | -0.0491

Row | Structure (SMILES) | z-score
67 | CC(C)(C)c1cccc(OCCCSc2ncccn2)c1 | -0.207
68 | Cc1cc(C)nc(N2CCCC(C(=O)Nc3nnc(C(C)C)s3)C2)n1 (stereo not given) | -0.0456
69 | CSc1nsc(SCC(=O)Nc2nc3ccc(C)cc3s2)n1 | -0.0744
70 | COc1ccc([N+](=O)[O-])cc1NC(=S)NC(NC(=O)Cc1ccc(OC)c(OC)c1)C(Cl)(Cl)Cl (stereo not given) | -0.227
71 | Cn1nc(-c2ccc(Cl)cc2)c2cc(C(=O)NCCN3CCOCC3)sc21 | 0.173
72 | CC(=O)N1CC2(C)CN(C(C)=O)CC(C)(C1)C2O (stereo not given) | -0.104
73 | CCNS(=O)(=O)c1ccc(NC(=O)c2cc(C(F)(F)F)nn2C)cc1 | -0.301
74 | O=C(NC(=S)Nc1nc(-c2cccc3ccccc23)cs1)c1cc2ccccc2o1 | 0.00499
75 | CCOc1cccc(NC(=O)CSc2nc(C)c3c(c2C#N)CCCC3)c1 | 0.548
76 | C=CCn1c(O)c(N=NC(=O)CNC(=O)c2cccs2)c2ccccc21 | -0.247
77 | COc1ccc(CCn2c(N3CCOCC3)nc3c2c(=O)[nH]c(=O)n3C)cc1 | -0.0892
78 | Cn1nc(CC(=O)NC2CCCCC2)c2ccccc2c1=O | -0.0244
79 | COc1cc(/C=N/NC(=S)NCc2ccco2)cc(OC)c1OC | -0.66
80 | Cc1ccc(S(=O)(=O)N2CC3(C)CN(S(=O)(=O)c4ccc(C)cc4)CC(C)(C2)C3=O)cc1 | 0.0212
81 | CCC(C)(C(=O)NC1CCCCC1)N(Cc1cccs1)C(=O)Cc1cccs1 (stereo not given) | -0.648
82 | CC(C)COCC(O)CCC(=O)NNC(=S)Nc1ccccc1 (stereo not given) | 0.0799
83 | CCc1nnc(NS(=O)(=O)c2ccc(N/C=C\C(=O)c3ccc4ccccc4c3)cc2)s1 | -0.277
84 | CC(C)Cn1ccc(=O)n(CC(C)C)c1=O | 0.347
85 | CCn1c(COc2ccc(=O)n(-c3ccccc3)n2)nnc1SCc1ccc(OC)cc1 | -0.486
86 | Cc1ccc(S(=O)(=O)Nc2cc(=O)[nH]c(SCc3ccc(Cl)cc3)n2)cc1 | -0.142
87 | COC(=O)c1ccc2c(=O)n(CCCN3CCCC3=O)c(=S)[nH]c2c1 | 0.11
88 | CS(=O)(=O)N1CCC(C(=O)NCCC2=CCCCC2)CC1 | 0.682

Row | Structure (SMILES) | z-score
89 | CC(=O)c1ccc(N2CCCC2)c(F)c1 | 2.4
90 | CCCCN(C)CCC(=O)Nc1ccc(F)c(F)c1 | -0.212
91 | CCOC(=O)c1c(C)[nH]sc1=S | 0.451
92 | COc1ccc(C(=O)NC(=S)Nc2ccc([N+](=O)[O-])cc2C)cc1OC | 1.42
93 | CCOc1ccc(NC(=O)Nc2ccc3nccnc3c2)cc1 | -0.163
94 | Cc1ccc2c(c1)CCCN2C(=O)Nc1ccc2c(c1)OCO2 | -0.378
95 | COc1ccc2c(c1OC)C(=O)OC2Nc1nc(-c2ccc(-c3ccccc3)cc2)cs1 (stereo not given) | -0.242
96 | COC(=O)C(N)Cc1ccc(O)cc1 (stereo not given) | -0.377
97 | COC(=O)c1ccc(CSc2nnc(CNC(=O)c3cccs3)o2)o1 | -0.239
98 | O=C(O)C1C2C=CC(C2)C1C(=O)Nc1ccc2c(c1)OCCO2 (stereo not given) | -0.0164
99 | O=C1C2CCCN2C(c2ccccc2F)N1c1cccc(Cl)c1 (stereo not given) | 0.05
100 | CCOC(=O)C(CC)/C(C)=N\NC(=O)c1ccccc1O (stereo not given) | -0.097
101 | CN1c2ccccc2C(C)(C)C12CC(c1ccc(Cl)c(S(=O)(=O)N3CCCC3)c1)=NO2 (stereo not given) | -0.0734
102 | O=c1oc2cc(OCc3c(F)c(F)c(F)c(F)c3F)ccc2cc1-c1ccccn1 | -0.0107
103 | Cc1onc(-c2c(F)cccc2Cl)c1C(=O)Nc1nc2c(s1)CCCC2 | -0.0855
104 | O=C(CCC(=O)OCc1ccc(C(=O)Oc2ccccc2)cc1)Nc1cccc2ccccc12 | -0.345
105 | CCC1=NC(c2ccc(OC)cc2OC)N(O)C1(C)C (stereo not given) | -0.547
106 | CCOC(=O)C1CCN(Cc2ccc(F)cc2F)CC1 | 0.242
107 | O=C(NC(Nc1ncccn1)C(=O)c1ccccc1)c1ccccc1 (stereo not given) | -0.81
108 | COc1cccc(/C(C)=N/NC(=O)c2cc(-c3cccnc3)nc3ccccc23)c1 | -0.465
109 | N#Cc1c(SCC(=O)N2CCOCC2)nsc1SCC(=O)N1CCOCC1 | 0.366
110 | Cc1nc(SCC(=O)Nc2cc(Cl)ccc2[N+](=O)[O-])nc(C)c1C | -0.447
